{"source": "the BET-seq Pho4 binding data (Le et al. 2018)", "note": "The other results are listed elsewhere or left out. The energies were worked out here from pooled read counts, against the library average; single values are noisy."}
{"target": "T1, Pho4 (S. cerevisiae) (UniProt P07270)", "T1 sequence": "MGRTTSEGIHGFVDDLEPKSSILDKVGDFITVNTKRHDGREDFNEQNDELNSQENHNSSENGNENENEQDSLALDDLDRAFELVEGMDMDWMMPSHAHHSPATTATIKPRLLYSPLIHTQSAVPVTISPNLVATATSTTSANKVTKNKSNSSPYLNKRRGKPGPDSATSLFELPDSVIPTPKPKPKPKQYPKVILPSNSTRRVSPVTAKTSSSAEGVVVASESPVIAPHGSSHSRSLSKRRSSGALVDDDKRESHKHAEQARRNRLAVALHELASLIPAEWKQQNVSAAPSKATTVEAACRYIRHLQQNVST", "assay": "relative binding free energy (BET-seq); higher = weaker binding", "conditions": "reference: library average", "units": {"relative binding free energy": "kcal/mol"}}
{"sequence": "TGTACCACGTGTTGGT", "relative binding free energy": -0.14}
{"sequence": "GTGAGCACGTGGGTAC", "relative binding free energy": -0.12}
{"sequence": "AATGCCACGTGGGGGC", "relative binding free energy": -0.26}
{"sequence": "TTGGACACGTGTTACT", "relative binding free energy": -0.02}
{"sequence": "GTGTGCACGTGGACGT", "relative binding free energy": 0.01}
{"sequence": "TTTGACACGTGGACGT", "relative binding free energy": 0.08}
{"sequence": "CGTGGCACGTGGGTAC", "relative binding free energy": -0.36}
{"sequence": "TGTTGCACGTGTCTGT", "relative binding free energy": -0.06}
{"sequence": "GCATTCACGTGGGGGA", "relative binding free energy": 0.05}
{"sequence": "TGATTCACGTGTAAAT", "relative binding free energy": 0.35}
{"sequence": "TCGCGCACGTGTGTGG", "relative binding free energy": -0.06}
{"sequence": "TTAAACACGTGTGTAT", "relative binding free energy": -0.1}
{"sequence": "GTATTCACGTGAGTAG", "relative binding free energy": 0.42}
{"sequence": "TTGCGCACGTGACTTG", "relative binding free energy": 0.07}
{"sequence": "GGGGGCACGTGCAGGT", "relative binding free energy": -0.06}
{"sequence": "CATATCACGTGTTTGA", "relative binding free energy": 0.1}
{"sequence": "TGGCTCACGTGCGTTA", "relative binding free energy": 0.29}
{"sequence": "TGGAGCACGTGTTGAG", "relative binding free energy": -0.06}
{"sequence": "AGCATCACGTGTTGGG", "relative binding free energy": -0.03}
{"sequence": "TAATGCACGTGGTCAT", "relative binding free energy": -0.14}
{"sequence": "GAGTACACGTGGGAGT", "relative binding free energy": 0.03}
{"sequence": "ATTAACACGTGGGAAG", "relative binding free energy": -0.01}
{"sequence": "CTTGACACGTGTAAGT", "relative binding free energy": 0.22}
{"sequence": "TTAGGCACGTGATGAA", "relative binding free energy": -0.04}
{"sequence": "CATGTCACGTGGGGGA", "relative binding free energy": -0.03}
{"sequence": "GCCGTCACGTGCGGGG", "relative binding free energy": -0.01}
{"sequence": "CGGTTCACGTGGCAGG", "relative binding free energy": 0.32}
{"sequence": "GGCTGCACGTGCGTGG", "relative binding free energy": -0.16}
{"sequence": "GGGGGCACGTGGTGCT", "relative binding free energy": -0.22}
{"sequence": "GCGGGCACGTGGTATG", "relative binding free energy": -0.09}
{"sequence": "CGGCTCACGTGTGGTT", "relative binding free energy": 0.16}
{"sequence": "AATGGCACGTGCGGTG", "relative binding free energy": -0.08}
{"sequence": "TTGGGCACGTGTGAGA", "relative binding free energy": 0.08}
{"sequence": "GATGTCACGTGGAGGG", "relative binding free energy": 0.26}
{"sequence": "AAGGGCACGTGTAGTT", "relative binding free energy": -0.07}
{"sequence": "ATACTCACGTGAGTGT", "relative binding free energy": 0.28}
{"sequence": "AGATTCACGTGGTTAT", "relative binding free energy": 0.19}
{"sequence": "CATTACACGTGTTAGT", "relative binding free energy": 0.18}
{"sequence": "ATGCACACGTGGGGAT", "relative binding free energy": -0.13}
{"sequence": "TGTAGCACGTGGAGTT", "relative binding free energy": 0.06}
{"sequence": "TAAGTCACGTGGTAAT", "relative binding free energy": 0.02}
{"sequence": "GGTGTCACGTGATAAA", "relative binding free energy": 0.21}
{"sequence": "TTTTTCACGTGTGCAA", "relative binding free energy": 0.23}
{"sequence": "CGGTACACGTGGGTGT", "relative binding free energy": -0.17}
{"sequence": "ATTTTCACGTGGGAGG", "relative binding free energy": 0.12}
{"sequence": "TATTGCACGTGCGTGA", "relative binding free energy": -0.11}
{"sequence": "GTTTACACGTGCTTGT", "relative binding free energy": 0.12}
{"sequence": "GTCGGCACGTGAGTAG", "relative binding free energy": 0.05}
{"sequence": "TTGTGCACGTGATCAT", "relative binding free energy": 0.11}
{"sequence": "GTGGACACGTGCGGCT", "relative binding free energy": -0.08}
{"sequence": "AAAGTCACGTGGTGAT", "relative binding free energy": 0.14}
{"sequence": "TGGAGCACGTGTGGTC", "relative binding free energy": 0.05}
{"sequence": "AATTTCACGTGTGCGG", "relative binding free energy": 0.16}
{"sequence": "TGTTCCACGTGGTTAG", "relative binding free energy": -0.13}
{"sequence": "CTTTGCACGTGTGGAG", "relative binding free energy": 0}
{"sequence": "TTGACCACGTGGGGTT", "relative binding free energy": -0.21}
{"sequence": "ATGGTCACGTGATAGA", "relative binding free energy": 0.21}
{"sequence": "AGGTGCACGTGGCTGT", "relative binding free energy": -0.12}
{"sequence": "GTAGTCACGTGTTACG", "relative binding free energy": 0.17}
{"sequence": "AATCTCACGTGGATGG", "relative binding free energy": 0.33}
{"sequence": "CTAAGCACGTGGTTAG", "relative binding free energy": -0.03}
{"sequence": "TTATCCACGTGTAAGT", "relative binding free energy": 0.14}
{"sequence": "CGAGGCACGTGGGATA", "relative binding free energy": -0.22}
{"sequence": "GTCGCCACGTGGTGGG", "relative binding free energy": -0.14}
{"sequence": "GTTTCCACGTGGTGAT", "relative binding free energy": 0.19}
{"sequence": "GCAGGCACGTGATGGG", "relative binding free energy": 0.08}
{"sequence": "ATTTACACGTGTTGGT", "relative binding free energy": 0.09}
{"sequence": "AGTGGCACGTGAAAGT", "relative binding free energy": 0.19}
{"sequence": "TAACTCACGTGGGATG", "relative binding free energy": 0.28}
{"sequence": "TTTTTCACGTGAGATG", "relative binding free energy": 0.41}
{"sequence": "TGGTACACGTGTAGAT", "relative binding free energy": 0.27}
{"sequence": "GGAGACACGTGATGGT", "relative binding free energy": 0.18}
{"sequence": "TGATTCACGTGCTTGT", "relative binding free energy": 0.31}
{"sequence": "TTGATCACGTGATTGC", "relative binding free energy": 0.22}
{"sequence": "TGTAGCACGTGGTTTC", "relative binding free energy": -0.1}
{"sequence": "ATCATCACGTGGCGGG", "relative binding free energy": 0.19}
{"sequence": "GAAATCACGTGGGTGA", "relative binding free energy": 0.22}
{"sequence": "AAGCTCACGTGAAGGT", "relative binding free energy": 0.39}
{"sequence": "ACGGACACGTGAGGGT", "relative binding free energy": 0.21}
{"sequence": "TCGGGCACGTGGTTAC", "relative binding free energy": 0.03}
{"sequence": "GGTGACACGTGTATCT", "relative binding free energy": 0.16}
{"sequence": "TTCGGCACGTGGGAGT", "relative binding free energy": -0.22}
{"sequence": "CGGTCCACGTGCGGGT", "relative binding free energy": -0.01}
{"sequence": "AGGGGCACGTGTGCAA", "relative binding free energy": -0.1}
{"sequence": "GTTAGCACGTGTAGAT", "relative binding free energy": 0.04}
{"sequence": "CGGGGCACGTGGGCGT", "relative binding free energy": -0.29}
{"sequence": "CAGGGCACGTGTGTCA", "relative binding free energy": -0.03}
{"sequence": "CTAAGCACGTGGTAGG", "relative binding free energy": -0.18}
{"sequence": "AATTTCACGTGAAGGG", "relative binding free energy": 0.34}
{"sequence": "GGCGTCACGTGAAGCG", "relative binding free energy": 0.41}
{"sequence": "TATTTCACGTGTTTAT", "relative binding free energy": 0.29}
{"sequence": "TGCTGCACGTGATTAT", "relative binding free energy": 0.09}
{"sequence": "TGGGCCACGTGCGCGG", "relative binding free energy": -0.33}
{"sequence": "AAGGGCACGTGGCGTA", "relative binding free energy": -0.4}
{"sequence": "ATGGTCACGTGGGTCT", "relative binding free energy": -0.06}
{"sequence": "AAGTGCACGTGTTAGA", "relative binding free energy": 0.05}
{"sequence": "CGTCTCACGTGTGGAG", "relative binding free energy": 0.3}
{"sequence": "ATGAGCACGTGTGAGA", "relative binding free energy": -0.11}
{"sequence": "GAATGCACGTGAATGG", "relative binding free energy": 0.16}
{"sequence": "GGGTCCACGTGTTAGG", "relative binding free energy": 0.05}
{"sequence": "GTATGCACGTGAGGTT", "relative binding free energy": 0.27}
{"sequence": "GTGGTCACGTGGAAAA", "relative binding free energy": 0.35}
{"sequence": "AAGGGCACGTGTGGCG", "relative binding free energy": -0.12}
{"sequence": "GCTTGCACGTGGTTAT", "relative binding free energy": 0.01}
{"sequence": "AGAAGCACGTGCTGGG", "relative binding free energy": -0.16}
{"sequence": "TATATCACGTGTGGCC", "relative binding free energy": 0.49}
{"sequence": "GTGCTCACGTGAGGTG", "relative binding free energy": 0.32}
{"sequence": "TTGCTCACGTGATTTG", "relative binding free energy": 0.28}
{"sequence": "TTTATCACGTGGTAAA", "relative binding free energy": 0.23}
{"sequence": "GGGAGCACGTGTGGCA", "relative binding free energy": -0.19}
{"sequence": "GTGTACACGTGTATGA", "relative binding free energy": 0.18}
{"sequence": "TCTGGCACGTGTAGGA", "relative binding free energy": -0.14}
{"sequence": "TGTCGCACGTGCAAGG", "relative binding free energy": -0.04}
{"sequence": "CAGTGCACGTGGAGAT", "relative binding free energy": 0.02}
{"sequence": "AGTGTCACGTGTGCGC", "relative binding free energy": 0.08}
{"sequence": "GCTTGCACGTGGGTGC", "relative binding free energy": -0.12}
{"sequence": "GGGTACACGTGACGTA", "relative binding free energy": 0.35}
{"sequence": "AGTGACACGTGGTGTC", "relative binding free energy": -0.12}
{"sequence": "GCGTTCACGTGGTTGG", "relative binding free energy": 0.3}
{"sequence": "GGTATCACGTGTAGTA", "relative binding free energy": 0.12}
{"sequence": "GAAGGCACGTGGTAGC", "relative binding free energy": -0.06}
{"sequence": "GTTGACACGTGGCGTT", "relative binding free energy": -0.1}
{"sequence": "GGTGTCACGTGCTAAG", "relative binding free energy": 0.09}
{"sequence": "ATGCGCACGTGTTGCG", "relative binding free energy": -0.03}
{"sequence": "GATGGCACGTGTAGAG", "relative binding free energy": 0.04}
{"sequence": "TAGTTCACGTGAGATG", "relative binding free energy": 0.5}
{"sequence": "GGCTGCACGTGGAAGG", "relative binding free energy": -0.03}
{"sequence": "AGGGCCACGTGTGGGA", "relative binding free energy": -0.01}
{"sequence": "GTTTTCACGTGTTCAT", "relative binding free energy": 0.27}
{"sequence": "TCAATCACGTGGTTAT", "relative binding free energy": 0.27}
{"sequence": "AGGGACACGTGGTGGC", "relative binding free energy": -0.07}
{"sequence": "GTCATCACGTGGGGAT", "relative binding free energy": 0.02}
{"sequence": "ACCTGCACGTGGGGGT", "relative binding free energy": -0.24}
{"sequence": "GTTTTCACGTGTCGTG", "relative binding free energy": 0.16}
{"sequence": "AGCGGCACGTGAAGGA", "relative binding free energy": 0.24}
{"sequence": "ATCTTCACGTGCGGGG", "relative binding free energy": 0.16}
{"sequence": "GCAGACACGTGGGTGG", "relative binding free energy": -0.08}
{"sequence": "CGGGGCACGTGAATGT", "relative binding free energy": 0.21}
{"sequence": "GGAGACACGTGTGGCA", "relative binding free energy": 0.19}
{"sequence": "TGTGGCACGTGCCGAT", "relative binding free energy": -0.12}
{"sequence": "TTGTTCACGTGGAGGG", "relative binding free energy": 0.28}
{"sequence": "TACTTCACGTGGGGTG", "relative binding free energy": 0.14}
{"sequence": "CGGGTCACGTGGCGGC", "relative binding free energy": 0.03}
{"sequence": "GGACTCACGTGGGTGG", "relative binding free energy": 0.1}
{"sequence": "GGGCGCACGTGTAGGG", "relative binding free energy": -0.05}
{"sequence": "TGGTGCACGTGTGCCT", "relative binding free energy": -0.09}
